Data as given in the BET-seq Pho4 binding data (Le et al. 2018).
The list shows a part of the results. The energies were worked out here from pooled read counts, against the library average; single values are noisy.

Molecular target: T1, Pho4 (S. cerevisiae) (UniProt P07270)
T1 sequence: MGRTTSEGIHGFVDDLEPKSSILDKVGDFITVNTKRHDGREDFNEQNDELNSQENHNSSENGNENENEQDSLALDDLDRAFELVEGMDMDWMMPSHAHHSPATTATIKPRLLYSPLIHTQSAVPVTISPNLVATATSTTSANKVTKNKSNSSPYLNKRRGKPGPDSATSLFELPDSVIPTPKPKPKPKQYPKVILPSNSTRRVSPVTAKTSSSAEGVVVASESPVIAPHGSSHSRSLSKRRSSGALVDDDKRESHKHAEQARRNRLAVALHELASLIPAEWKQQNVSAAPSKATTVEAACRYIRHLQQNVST
Experiment: relative binding free energy (BET-seq); higher = weaker binding
Conditions: reference: library average

| Sequence | relative binding free energy |
| --- | --- |
| ATTAACACGTGTTAGA | 0.01 kcal/mol |
| AGAGGCACGTGGTAAT | -0.22 kcal/mol |
| GAGTTCACGTGGTTCT | 0.36 kcal/mol |
| GGGATCACGTGTTTGC | 0.14 kcal/mol |
| GTAGTCACGTGGTGCG | 0.02 kcal/mol |
| GCTTTCACGTGGGATT | 0.17 kcal/mol |
| TGTTTCACGTGAGAAG | 0.33 kcal/mol |
| TGGGACACGTGGTCTT | -0.02 kcal/mol |
| TAGTACACGTGTGGTT | 0.2 kcal/mol |
| TTTGGCACGTGGAGTT | -0.07 kcal/mol |
| GTATTCACGTGGATTG | 0.34 kcal/mol |
| GCGATCACGTGGGCGG | 0 kcal/mol |
| TACTACACGTGGGGTA | -0.17 kcal/mol |
| CGGGGCACGTGGATAG | 0.05 kcal/mol |
| TGCCTCACGTGTGAGT | 0.36 kcal/mol |
| CGCGTCACGTGGGGAT | -0.11 kcal/mol |
| TATAACACGTGGTGAG | -0.12 kcal/mol |
| TTATGCACGTGAGTGT | 0.18 kcal/mol |
| TGTGTCACGTGGAGTA | -0.1 kcal/mol |
| TCTGGCACGTGCGGGT | -0.18 kcal/mol |
| ATTGGCACGTGCGGAG | -0.23 kcal/mol |
| TTGGGCACGTGTATGG | 0.01 kcal/mol |
| CAATTCACGTGTGTCT | 0.34 kcal/mol |
| CGGTTCACGTGTAGGA | 0.27 kcal/mol |
| TTTTGCACGTGATAAT | 0.1 kcal/mol |

| Sequence | relative binding free energy |
| --- | --- |
| AAAGTCACGTGCGTGT | 0.03 kcal/mol |
| AGGAGCACGTGGTCTT | -0.15 kcal/mol |
| CAGTGCACGTGTATAT | 0.03 kcal/mol |
| GGTGTCACGTGGTGCA | -0.05 kcal/mol |
| TATGCCACGTGGGGAG | -0.32 kcal/mol |
| GAGTGCACGTGTTTGA | -0.07 kcal/mol |
| TGAGTCACGTGTTGGG | 0.21 kcal/mol |
| TCGAGCACGTGTTGTG | -0.1 kcal/mol |
| GGTCACACGTGGGATG | 0.1 kcal/mol |
| CATGTCACGTGCGTGA | 0.14 kcal/mol |
| GATAGCACGTGAGGTA | -0.01 kcal/mol |
| TGAGCCACGTGGAAGT | 0 kcal/mol |
| CGTTTCACGTGTTAAA | 0.23 kcal/mol |
| TAGAGCACGTGTCGGG | -0.04 kcal/mol |
| ACCGGCACGTGGAGTG | -0.07 kcal/mol |
| AAGTGCACGTGTTAGT | -0.08 kcal/mol |
| TTTGACACGTGGATCG | 0.01 kcal/mol |
| TTCATCACGTGGTAGT | 0.12 kcal/mol |
| GGCTTCACGTGTAGAG | 0.21 kcal/mol |
| TATGTCACGTGAGTGA | 0.09 kcal/mol |
| GTATCCACGTGATGGG | 0.15 kcal/mol |
| ATGTGCACGTGTCATG | -0.05 kcal/mol |
| AATGTCACGTGGGGTT | 0.03 kcal/mol |
| AAATTCACGTGCTTGG | 0.26 kcal/mol |
| GTATGCACGTGTGTGG | 0.05 kcal/mol |

| Sequence | relative binding free energy |
| --- | --- |
| GGTTGCACGTGAAATT | 0.37 kcal/mol |
| TATGTCACGTGCAATT | 0.19 kcal/mol |
| GTCTACACGTGTGTGT | 0.21 kcal/mol |
| GTTTGCACGTGGAGAT | 0.16 kcal/mol |
| GTGTGCACGTGTTTAT | 0.09 kcal/mol |
| TACTACACGTGTGTTG | 0.1 kcal/mol |
| AGTTACACGTGATTTT | 0.23 kcal/mol |
| GTCGGCACGTGTGTCG | 0.02 kcal/mol |
| TAGGGCACGTGAATCG | 0.04 kcal/mol |
| ATGGTCACGTGATAAG | 0.14 kcal/mol |
| GCGAGCACGTGTGAGT | -0.04 kcal/mol |
| GGATGCACGTGTCGTG | 0.12 kcal/mol |
| GGGTGCACGTGGTGAA | -0.1 kcal/mol |
| GTGTACACGTGCTCGG | 0.06 kcal/mol |
| GTGGTCACGTGAAGTC | 0.17 kcal/mol |
| TGGGACACGTGCGTCG | -0.15 kcal/mol |
| ATGACCACGTGTTGGG | -0.01 kcal/mol |
| GGGACCACGTGGATGA | 0.25 kcal/mol |
| TGACGCACGTGTGTTC | 0.03 kcal/mol |
| GGTGTCACGTGTCCGT | 0.22 kcal/mol |
| GGGTTCACGTGTGTTT | 0.37 kcal/mol |
| GGGTTCACGTGCGATG | 0.18 kcal/mol |
| CATGACACGTGTTGGT | 0.03 kcal/mol |
| ATGGTCACGTGGAAAT | 0.13 kcal/mol |
| TATGCCACGTGGTGGA | -0.17 kcal/mol |

| Sequence | relative binding free energy |
| --- | --- |
| GGAGGCACGTGTTCTG | -0.19 kcal/mol |
| CGATTCACGTGTTAGG | 0.1 kcal/mol |
| GGTAGCACGTGGGCTC | -0.15 kcal/mol |
| GAGGCCACGTGTGCGG | 0.02 kcal/mol |
| TTATACACGTGTGTAG | 0.05 kcal/mol |
| TTGATCACGTGGTAGA | 0.17 kcal/mol |
| TTTGGCACGTGTAGGG | -0.01 kcal/mol |
| ACAGGCACGTGGTGGC | -0.01 kcal/mol |
| CTCGCCACGTGGGGGG | -0.23 kcal/mol |
| AGGTACACGTGCATGT | 0.03 kcal/mol |
| ATTGTCACGTGGGTAG | 0.01 kcal/mol |
| AGTCGCACGTGGAGGC | 0.02 kcal/mol |
| AGTTTCACGTGAAGGA | 0.44 kcal/mol |
| GTGTTCACGTGGACGG | 0.23 kcal/mol |
| TTTAGCACGTGTCAGT | -0.26 kcal/mol |
| ATGGTCACGTGGTGCA | 0.04 kcal/mol |
| TTGGTCACGTGAGAAA | 0.22 kcal/mol |
| AGGGTCACGTGCGCAT | -0.02 kcal/mol |
| GTAAGCACGTGGATGC | 0 kcal/mol |
| TGGCACACGTGGGAGA | 0.18 kcal/mol |
| ATCGGCACGTGGTATG | -0.28 kcal/mol |
| GTTATCACGTGTGTAT | 0.1 kcal/mol |
| TGGTGCACGTGTATTT | 0.14 kcal/mol |
| TGGTCCACGTGAGGCG | 0.24 kcal/mol |
| TTTGTCACGTGACTCG | 0.24 kcal/mol |

| Sequence | relative binding free energy |
| --- | --- |
| GTGTGCACGTGGAGGA | 0.14 kcal/mol |
| CTAGTCACGTGGGCAG | -0.01 kcal/mol |
| AGCTACACGTGTGGTA | 0.15 kcal/mol |
| AAGTGCACGTGGGGGC | -0.14 kcal/mol |
| GGGTCCACGTGACGGG | 0.12 kcal/mol |
| TATTACACGTGGGTTG | 0 kcal/mol |
| GAGGTCACGTGGTCAG | -0.01 kcal/mol |
| CGGTACACGTGCAGGT | 0.09 kcal/mol |
| GGTGACACGTGGGTCT | 0.02 kcal/mol |
| GGCGGCACGTGTTGGC | -0.05 kcal/mol |
| CGATGCACGTGTGTGG | -0.01 kcal/mol |
| GGGGGCACGTGAAGAG | 0.27 kcal/mol |
| GAGCTCACGTGAGGAG | 0.52 kcal/mol |
| TGGAACACGTGTTAAG | 0.2 kcal/mol |
| TTAATCACGTGCTGGG | 0.1 kcal/mol |
| CCAGGCACGTGTAGTG | -0.01 kcal/mol |
| TTTAACACGTGTTCGG | -0.03 kcal/mol |
| TACCTCACGTGGGGTT | 0.24 kcal/mol |
| GGGTGCACGTGTGAGT | 0.19 kcal/mol |
| GTGTGCACGTGGCAAG | -0.08 kcal/mol |
| AAGGGCACGTGTGCGT | -0.2 kcal/mol |
| TCTGGCACGTGGTCGT | -0.26 kcal/mol |
| AGGTGCACGTGACGGT | 0.05 kcal/mol |
| GAAGGCACGTGGGAAG | -0.14 kcal/mol |
| GGTGGCACGTGGAGTG | -0.05 kcal/mol |

| Sequence | relative binding free energy |
| --- | --- |
| ATTGACACGTGTTTCT | 0.02 kcal/mol |
| ATTGCCACGTGAGGTG | 0.28 kcal/mol |
| GTGCGCACGTGGTGCT | -0.06 kcal/mol |
| GGGGGCACGTGAGGCA | 0.03 kcal/mol |
| TTAGGCACGTGAGGTT | 0.05 kcal/mol |
| GTTAACACGTGTGGTT | 0.17 kcal/mol |
| TAAGTCACGTGTTTGA | 0.14 kcal/mol |
| TTGCGCACGTGGAGCT | -0.11 kcal/mol |
| GTTCGCACGTGGGGCG | -0.17 kcal/mol |
| TGTTTCACGTGTGACC | 0.35 kcal/mol |
| GCTATCACGTGTGTGT | 0.27 kcal/mol |
| CGATTCACGTGGCAGG | 0.38 kcal/mol |
| ATTTTCACGTGGCGTA | 0.05 kcal/mol |
| AGATGCACGTGGAGGA | -0.03 kcal/mol |
| TTGTACACGTGTTGAC | 0.05 kcal/mol |
| TGAGTCACGTGATTGC | 0.12 kcal/mol |
| TGCAGCACGTGTGTAT | -0.06 kcal/mol |
| TTCTTCACGTGTGATT | 0.3 kcal/mol |
| GTAGTCACGTGCCGGG | 0.11 kcal/mol |
| TTGGGCACGTGCTTCG | -0.1 kcal/mol |
| GGGGGCACGTGTAACG | -0.02 kcal/mol |
